SMILES strings stand for the structures. Where “and” joins values, the source holds several entries; their conditions need not be identical. Identical values can stand only once. The campaign covered roughly 150,000 compounds. About 540 (0.36%) showed an effect of 50% or more. The list shows a part of the results.

42 molecules from ChEMBL document CHEMBL4888484, “Replenishing the malaria drug discovery pipeline: Screening and hit evaluation of the MMV Hit Generation Library 1 (HGL1) against asexual blood stage Plasmodium falciparum ,using a nano luciferase reporter read-out” (2022) can be followed below.

The subject of the experiment is Plasmodium falciparum. Briefly: Primary screen in NF54 nanoGlo assay, in single point, at 2uM, 72h; a lower Z score goes with more inhibition. Conditions: timepoint 72 hour. Type of experiment: functional, Erythrocyte.

On to `O=C(c1c(O)cc(Cl)cc1Cl)N1CCC2(CCC2)C1`, for which the “% Inhibition” value is on record as -11% and the Z score is 0.97.

Turning to `CN(C)c1cccc(C(=O)N2[C@H](C(=O)NC3CC3)C[C@@H]3OCC[C@@H]32)c1`, the “% Inhibition” value is on record as -5% and the Z score stood at 0.87.

As for `O=C(Cn1c(COc2ccc(Cl)cc2)nc2ccccc21)Nc1ccccc1Cc1ccccc1`, the “% Inhibition” value is listed as -4% and the Z score is given as 0.68.

As to `CNC[C@H]1CCCN1C(=O)c1ccc(-c2noc(C(F)(F)F)n2)cc1`, the “% Inhibition” value is given as 38% and the Z score is recorded as -1.3.

In the case of `CN1C(=O)CN(S(=O)(=O)CC2CC2)[C@H]1c1ccccc1`, the “% Inhibition” value was -6% and the Z score is 0.72.

Regarding `Cc1nnc(CNC(=O)Cc2csc(NC(=O)c3ncccn3)n2)o1`, the “% Inhibition” value was -14% and the Z score was found to be 1.62.

For `CCOC1(C(=O)NS(=O)(=O)C[C@H](C)OC)CCCC1`, the “% Inhibition” value is reported as -8% and the Z score came out at 1.57.

As to `C[C@@H](c1ccc2c(c1)OCCO2)N(C)C(=O)COc1ccc2nncn2n1`, the “% Inhibition” value is recorded as -21% and the Z score stood at 2.21.

Take `NC(=O)CCC1NC2(C(=O)Nc3ccccc32)C2C(=O)N(c3cc(C(F)(F)F)ccc3Cl)C(=O)C12` (centres undefined): the “% Inhibition” value turned out to be 4% and the Z score is -0.47.

Turning to `COc1ccc(Cc2nc([C@H](C)N3CCCC3)n(CCO)n2)cc1`, the “% Inhibition” value is -5% and the Z score was 0.49.

`Nc1ccc(Oc2ncnc3nc[nH]c23)cc1`: under “2 µM”, the “% Inhibition” value is -13% and -25%; the Z score is 1.95 and 3.53.

As to `Cc1nn(C)c2nc(N3CCC(N4CCCCCC4)CC3)sc12`, the “% Inhibition” value is on record as -7% and the Z score was 1.48.

Regarding `CCC1(CNCc2nc(CO)cs2)CCC1`, the “% Inhibition” value is -2% and the Z score was found to be 0.35.

With `COc1cc(CCNC(=O)C2CCN(CC(F)F)CC2)ccc1C`, the “% Inhibition” value is recorded as -5% and the Z score came to 0.92.

As to `CN(CCC(=O)Nc1ccccc1-c1ccccc1)Cc1ccco1`, the “% Inhibition” value is recorded as -1% and the Z score is 0.09.

On to `CCCc1cc(C(=O)N(C)Cc2ccc3nccnc3c2)no1`, for which the “% Inhibition” value is given as -4% and the Z score turned out to be 0.64.

Take `Cc1nc(CNC(=O)NC2c3cccc(F)c3CCC2C)no1` (centres undefined): the “% Inhibition” value is reported as -4% and the Z score is 0.53.

As to `Cc1ccc(NC(=O)c2nc(C)c(C)nc2C(=O)NC(C)C)cc1`, the “% Inhibition” value was -38% and the Z score worked out at 4.5.

With `COCCn1cc2c(n1)[C@@H](NS(=O)(=O)N1CCOCC1)CCC2`, the “% Inhibition” value is given as -1% and the Z score amounted to 0.08.

As for `CCC(NC(=O)c1cn(CC(O)c2ccsc2)nn1)c1cccs1` (centres undefined), the “% Inhibition” value is reported as -8% and the Z score was 1.58.

For `CCN1CCN(C(=O)[C@@]2(CCO)CC23CCOCC3)CC1`, the “% Inhibition” value came to 0% and the Z score amounted to 0.02.

Take `N#Cc1ccc(Br)c(OC(F)(F)F)c1`: the “% Inhibition” value is given as -13% and the Z score was determined as 2.5.

`O=C(Nc1nccnc1C(=O)O)c1ccc(Cl)cc1`: the “% Inhibition” value amounted to 37% and the Z score is -1.39.

As to `COc1ccc(Cl)cc1NC(=O)N1CCC(n2cnc3c(C)cccc3c2=O)CC1`, the “% Inhibition” value was -8% and the Z score was 0.91.

Turning to `CCc1ccc(CC)c(NC(=O)N(CCO)CC(F)F)c1`, the “% Inhibition” value is on record as -6% and the Z score is given as 0.56.

With `CN(C)c1cccc(-c2cc3c(cc2OC(C)(C)C(=O)O)OCC3)c1`, the “% Inhibition” value is -4% and the Z score is on record as 0.83.

For the molecule `O=C(c1ccco1)N1CCOc2ccc(CN3CCc4ccccc4C3)cc2C1`, the “% Inhibition” value is -13% and the Z score is 1.43.

As to `CC(C)(C)[C@@H]1CN(c2cc(CO)cc(C(F)(F)F)n2)CCO1`, the “% Inhibition” value is -8% and the Z score amounted to 0.79.

For the molecule `CCC(=O)Nc1ccc(-n2nc(OCCc3ccc(OC)cc3)nc2-c2ccc(Cl)c(Cl)c2)cc1`, the “% Inhibition” value is on record as -12% and the Z score is recorded as 1.19.

As to `Cn1nc(-c2nc(-c3cccc(F)c3)no2)c2c1CCN(C(=O)c1cccc(F)c1)C2`, the “% Inhibition” value is given as -7% and the Z score is 0.84.

As for `CC(Cn1cncn1)NC(=O)CC(O)c1cc(Cl)cc(Cl)c1` (centres undefined), the “% Inhibition” value was -7% and the Z score amounted to 1.18.

For `CCc1ccc(CN(CCN2C(=O)NC(C)(C)C2=O)C2CC2)cc1`, the “% Inhibition” value is on record as -41% and the Z score turned out to be 4.83.

In the case of `O=C1NC(=O)[C@H](CCC(=O)N(Cc2cccnc2)C2CCCCC2)N1`, the “% Inhibition” value is reported as -12% and the Z score was found to be 1.24.

In the case of `Cn1cc(C(NC(=O)c2cc3ncccn3n2)[C@H]2C[C@@H](O)C2)cn1` (some centres undefined), the “% Inhibition” value is reported as -13% and the Z score is recorded as 1.37.

As for `COCc1nnc2n1CC[C@@H](NC(=O)c1sc(C)nc1C)CC2`, the “% Inhibition” value is on record as -6% and the Z score worked out at 0.86.

As for `Cc1ccc2[nH]c3c(c2c1)CC(NC(=O)N1CCCC(C2CCCCO2)C1)CC3` (centres undefined), the “% Inhibition” value is recorded as -4% and the Z score came to 0.79.

For `O=C(NCc1ccc(F)cc1)[C@@H]1Cc2c(ccc3ccccc23)O1`, the “% Inhibition” value was -13% and the Z score is 1.64.

Turning to `Cc1c(CN2CCC[C@@](F)(C(=O)N3CCCC3)C2)cnn1C`, the “% Inhibition” value was -18% and the Z score was 1.6.

Turning to `CC(=O)N1C[C@@H]2C[C@H](NC(=O)c3ccc(C)c(F)c3)CN2C(=O)[C@@H]1C`, the “% Inhibition” value is listed as -20% and the Z score came out at 1.73.

In the case of `Cc1noc(C)c1S(=O)(=O)NC1CCN(C)CC1`, the “% Inhibition” value is recorded as 7% and the Z score is recorded as -0.84.

In the case of `N#Cc1ccc(S(=O)(=O)Nc2nccn3ccnc23)cc1`, the “% Inhibition” value is -6% and the Z score stood at 0.89.

Consider `O=S(=O)(NCCNc1ccc(-n2cccn2)nn1)c1cccs1`, for which the “% Inhibition” value is listed as 4% and the Z score is recorded as -0.71.
